In PMC12136788:
Some of the results follow.

T1: UNK ZnF1-3 (human, UniProt Q9C0B0 31-174)
T1 sequence: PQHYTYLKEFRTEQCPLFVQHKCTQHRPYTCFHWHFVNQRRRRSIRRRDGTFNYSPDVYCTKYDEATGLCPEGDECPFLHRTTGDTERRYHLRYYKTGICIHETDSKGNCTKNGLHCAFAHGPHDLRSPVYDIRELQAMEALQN

B1: 58473186_58473306_2931_ncRNA_ENSMUSG00000026034_ENSMUST00000129577|mouse|control|control (ssRNA)
RNA: GGGAGUUCUACAGUCCGACGAUCAUUGGGCUGCAUUACAGAUGGUUGUGAGCCACCAUGUGGUUGCUGGGAUUUGAACUCAGGGCCUCUGGAAGAGCAGUCAGUGCUCUUAACCGCUAAGAGAUGUCUCCAGCCCACAAGUCUCAACAGAGGAUUGAGCAUCA
B2: 23548034_23548154_1982_CDS_ENSG00000100813_ENST00000605057|human|control|control (ssRNA)
RNA: GGGAGUUCUACAGUCCGACGAUCAGGCUGUAACCUCUGGGUCACAUGCUUUUCAGCUGAUUCAGGCUGACUCAGACGCCUUGCUUGGACAGAGGAUGAGGAGGUGGAAGUCCUCUCCUUUGGCUCACAGACCUGCAGUUGUGGCAACAGAGGAUUGAGCAUCA
B3: 90701550_90703810_897_3pUTR_ENSMUSG00000027282_ENSMUST00000136872|mouse|control|control (ssRNA)
RNA: GGGAGUUCUACAGUCCGACGAUCCAUGCACCAGCAAUCUAUCCAAGAAGUGUAUAUUGGGGAAUAAGGAGGAGAUCCACCAGCAAGCCCACAGUUGUUGACGGCCAUAAGAUUAGAUACAAGCACAAAGGGAUAUGUCAACAUCAACAGAGGAUUGAGCAUCA
B4: chr17:5392700:5392701:+_ENSG00000167842_ENST00000573759|hu_mus|FALSE|FALSE (ssRNA)
RNA: GGGAGUUCUACAGUCCGACGAUCGCUCUGAAGUUUUCUGCAGCUCUGGACCAGGGAUGCCAAACUCUCCCUAAAGUUACUAGUUCCUUGAUAUCUGCCGAUGUUUUCAAGCUCAUCAAAGAAAGUCAAGGUCUCUCUGAGUUUCAACAGAGGAUUGAGCAUCA
B5: chr12:45383693:45383694:+_ENSMUSG00000036257_ENSMUST00000043082|mus_hu|motif|central (ssRNA)
RNA: GGGAGUUCUACAGUCCGACGAUCACAAGAAAUACAGUUGCUUGCUUCUCUGCUUCCCACAAACACUUCUUGCAUUACGGAGGAGGUAAAUAUAUAUAUCUACAGUCAGAUUAAUAGACAUAACUUAAAAAUCAUUUAUUUUCUCAACAGAGGAUUGAGCAUCA
B6: chr11:87793471:87793472:-_ENSMUSG00000020483_ENSMUST00000020775|mus_mus|mus_mus_mus_hu_False|1_8 (ssRNA)
RNA: GGGAGUUCUACAGUCCGACGAUCUGGACUUGAAAAUAAAAGAAUAAGCUGGAUCCCCCACCCCCCCACAUUGUCAACCCUACACGAGAGUUUUGAAGGCGACUCAUGAAAAUCAGCAGCUCAAACGAAUGACAACCCCCACCCCAACAGAGGAUUGAGCAUCA
B7: chr22:19452774:19452775:-_ENSG00000070010_ENST00000399523|hu_hu|hu_hu_hu_mus_False|28_78 (ssRNA)
RNA: GGGAGUUCUACAGUCCGACGAUCCUUCUCAUUGUAGUUGAUAGCAAUCACAUCUCCGGUGGUCAGACAGGCGAAGUUUCUCAAUGCAUUUUCUAAUACCGCUUUAGGGUUGGUGAUAUCCAGGAAGUCUGGGCUCUGAGGCUGCAACAGAGGAUUGAGCAUCA
B8: chr4:17845017:17845018:+_ENSG00000109805_ENST00000514176|hu_mus|hu_hu_hu_mus_False|88_108 (ssRNA)
RNA: GGGAGUUCUACAGUCCGACGAUCGCUUCCUAACUUAGUAUCUUCAUGAGAAAUUGGUGCAAGGUUAAGUUUACUUUUCUGUAGCGCAGCUGUUUUGGCUCGUCUGGGUAAUCUCAUCUUCAUUUCUGAUGGUGGUUCAUGAUCCAACAGAGGAUUGAGCAUCA
B9: chr17:45705486:45705487:-_ENSMUSG00000023944_ENSMUST00000024739|mus_mus|motif|central (ssRNA)
RNA: GGGAGUUCUACAGUCCGACGAUCGUUGGCUGUCCAGCCAUAGGUGCUUGUCACAAUGCAGCAGGGUGAAGACACAAGCCGGUUGGAGAUUGUCACCUUUUCAACCUUCUUGUCCAAGAUCUCCUUCAUGAGCUUGCAGAGAUUCAACAGAGGAUUGAGCAUCA
B10: chr9:14812383:14812384:-_ENSMUSG00000031934_ENSMUST00000164273|mus_mus|mus_mus_mus_hu_True|1_98 (ssRNA)
RNA: GGGAGUUCUACAGUCCGACGAUCAUAGCCCAGGUAGAUACAUGCCAACAGUAUAAUGAUGAGUGUCAGCAGGCGGCAGCUAAUGUACUUGAUGAUUAAAUUAUUAGAAUUUUUCUUUGUCUUCAAGUACUGCUCCACGAUUGGCAACAGAGGAUUGAGCAUCA
B11: chr8:95500983:95500984:-_ENSG00000164944_ENST00000437199|hu_hu|hu_hu_hu_mus_True|18_28 (ssRNA)
RNA: GGGAGUUCUACAGUCCGACGAUCAGAACACAUCUAUCGAGUAAAGGACCGUACAUGACGGCCUCUACCACUGCCUCCACUAACAAACUUUCCUCUCGAGCCUCCACCUGCCGCUAUUUGCACUAGCCAGGACGGUCCCAGGCCCAACAGAGGAUUGAGCAUCA
B12: chr4:54294246:54294247:+_ENSG00000145216_ENST00000306932|hu_hu|FALSE|FALSE (ssRNA)
RNA: GGGAGUUCUACAGUCCGACGAUCUGGAGGAGGUGGAAGGUGAGUGGGAGGAGCUCCUGGAGGGAAAAACGGAGGUGGUUUGCUAAAAUUGUUGUCUACUUCAGUAGCAGAUCUUUCAGAAAGGACCUGUAUGUUGCUGUUCUCCAACAGAGGAUUGAGCAUCA
B13: chr16:64763996:64763997:-_ENSMUSG00000059920_ENSMUST00000076991|mus_mus|motif|central (ssRNA)
RNA: GGGAGUUCUACAGUCCGACGAUCAGGCUUUUUAAGAAUUCAAAAAUUCAAUAUGAAAGAUAGCUUUUUAAAAAACCUUUCGGUAGCAGUAACACAAAUAGCCCAUGGAUUGUUUUUAAUCUUAUGCUUUUCUCAGGGCAUUUACAACAGAGGAUUGAGCAUCA
B14: 37450423_37450543_1856_CDS_ENSG00000115816_ENST00000234170|human|control|control (ssRNA)
RNA: GGGAGUUCUACAGUCCGACGAUCUAACCUCUUCACAAAAGCCUUCACCCGGCGCAACACAAUGUCAGCUUUCAGAGAUUUGUAGACAAGGUUAAGAAACAUAGCUUGCUUGGAACACGUCAUCAACCCUGGAUCCAACAUCUUCAACAGAGGAUUGAGCAUCA
B15: 151749061_151751266_965_CDS_ENSG00000182134_ENST00000458431|human|control|control (ssRNA)
RNA: GGGAGUUCUACAGUCCGACGAUCGUCAGGACUGGGGAUUUCAAACAUGGGCAUCUCUGGGAUGGCCUGGGCUUCAGACUUCUGAAAGCUGUCAUCACUAGGUUUCUCCCAGGAACCUUCCUUUGACACUACCACAGCCAUGUCCAACAGAGGAUUGAGCAUCA
B16: chr8:104447970:104447971:+_ENSG00000164934_ENST00000297579|hu_hu|hu_hu_hu_mus_False|18_108 (ssRNA)
RNA: GGGAGUUCUACAGUCCGACGAUCAUAUACCUCCCUGCUUCGGCUCUUGUCCACAGGAAAGAUUCUAAUAGACUUAUCAAAGCUGGCAGACACAAAUUCCUUCCCAGUGGGAGAGUAAUCCACAUCAAGUACUGCAGACACGUGCAACAGAGGAUUGAGCAUCA
B17: 117457482_117458510_5198_CDS_ENSMUSG00000038371_ENSMUST00000033058|mouse|control|control (ssRNA)
RNA: GGGAGUUCUACAGUCCGACGAUCUCUUGGCUCUUCCUUGAGGUCCGUGGUGACUUUUUCCCAUAGCUGGUGCCAUCUCUCAGGAGUUUGAUUCAAUUUAUGCUCCAAUUUUUCAAUUUCACUGAAAAGUCUCGUGAGGGCAUCCAACAGAGGAUUGAGCAUCA
B18: chr14:102368134:102368135:+_ENSG00000078304_ENST00000445439|hu_hu|hu_hu_hu_mus_True|48_78 (ssRNA)
RNA: GGGAGUUCUACAGUCCGACGAUCAAGAGGCUCCAUGAUCUUCACAAACUCUGAUGGUUCAAUGACAUCUAAAAUUUCUUCUAAUUCGUUUAAGAACAUUACUUCUUUUGGACUGUGAGUCUUUGGCCAGUAUUUGAGAAGUGCCAACAGAGGAUUGAGCAUCA
B19: chr2:113333244:113333245:+_ENSG00000125630_ENST00000417433|hu_mus|FALSE|FALSE (ssRNA)
RNA: GGGAGUUCUACAGUCCGACGAUCGGGAUCAAGUCAGAUGACAUCCAGUUUCACUUUGAUGUUCAUGGCUGCCAGCUCAGCUACAAAGUACCGGAAGACAUACGGCACAGAGACGGUGUCGAUGGUGUCACUGCGGCCACAGACCAACAGAGGAUUGAGCAUCA
B20: 10327494_10327614_699_CDS_ENSG00000054523_ENST00000377093|human|control|control (ssRNA)
RNA: GGGAGUUCUACAGUCCGACGAUCGGCUUUGUUCCCAGCAUCCAUGAGGUCAGCAAUGUCUGUGUAGGAAGUAACUGCCAACUUGGACAGAUCCUCCACAUAGGGUCCAAGAAGUGGGUGUUCACGCACACGCAAAUUACCCUUCAACAGAGGAUUGAGCAUCA
B21: chr11:87794392:87794393:-_ENSMUSG00000020483_ENSMUST00000020775|mus_hu|motif|central (ssRNA)
RNA: GGGAGUUCUACAGUCCGACGAUCCCCCACCCUCCGCCCCAAGCCAUAGAAUCACAGUUCAGUGGAAUAUUCUCCCUGGUACGGGAUCAAUCCCUCCACCUUCCUUCCUACCCCUUUUUCCUUGACAAUCCCAACACUGUCCCCCAACAGAGGAUUGAGCAUCA
B22: chr14:76904430:76904431:+_ENSMUSG00000022010_ENSMUST00000022587|mus_mus|mus_mus_mus_hu_True|48_78 (ssRNA)
RNA: GGGAGUUCUACAGUCCGACGAUCUGCAGCCAAAAACACCCUCGUGGAAAAAAAGAGCAAGCUCCAGCAGCCUUGUAUAAGCUAGAUAAAACCGCCUGGCUUUCCGCAGCCCAGGGAGAAACAGAAAACGGCAGCCCUAAUUUACAACAGAGGAUUGAGCAUCA

Biological target: T1, UNK ZnF1-3
Assay: nsRBNS (natural sequence RNA bind-n-seq); RBNS binding buffer (assumed for nsRBNS): 25 mM Tris pH 7.5, 150 mM KCl, 3 mM MgCl2, 0.01% Triton X-100, 500 ug/ml BSA, 20 U/ml SUPERase-In, 4 C; UNK is unkempt and MSI1 is Musashi-1; names of the RNAs are library labels; protein concentration not given here; high values mean tight binding

**Q.** B1 was tested. Which binding signal did it give?
**A.** Its binding signal is 0.945 enrichment R.

**Q.** Which binding signal does the source give for B2 here?
**A.** The binding signal was 0.438 enrichment R.

**Q.** For B3, which binding signal is on record?
**A.** The binding signal was 1.39 enrichment R.

**Q.** B4 was tested. Which binding signal did it give?
**A.** Its binding signal is 0.71 enrichment R.

**Q.** With B5 as the binder, how does the binding signal read?
**A.** Its binding signal is 1.05 enrichment R.

**Q.** B6 was tested. Which binding signal did it give?
**A.** The binding signal was 2.43 enrichment R.

**Q.** With B7 as the binder, how does the binding signal read?
**A.** The binding signal was 0.925 enrichment R.

**Q.** B8 was tested. Which binding signal did it give?
**A.** Its binding signal is 0.517 enrichment R.

**Q.** Which binding signal does the source give for B9 here?
**A.** Its binding signal is 0.915 enrichment R.

**Q.** With B10 as the binder, how does the binding signal read?
**A.** The binding signal was 1.36 enrichment R.

**Q.** How did the binding signal turn out when B11 was run?
**A.** The binding signal was 1.13 enrichment R.

**Q.** For B12, which binding signal is on record?
**A.** Its binding signal is 1.23 enrichment R.

**Q.** With B13 as the binder, how does the binding signal read?
**A.** The binding signal was 0.832 enrichment R.

**Q.** How did the binding signal turn out when B14 was run?
**A.** The binding signal was 1.05 enrichment R.

**Q.** How did the binding signal turn out when B15 was run?
**A.** Its binding signal is 0.716 enrichment R.

**Q.** Which binding signal does the source give for B16 here?
**A.** Its binding signal is 0.943 enrichment R.

**Q.** Which binding signal does the source give for B17 here?
**A.** Its binding signal is 0.522 enrichment R.

**Q.** Which binding signal does the source give for B18 here?
**A.** The binding signal was 0.743 enrichment R.

**Q.** With B19 as the binder, how does the binding signal read?
**A.** The binding signal was 1.02 enrichment R.

**Q.** B20 was tested. Which binding signal did it give?
**A.** Its binding signal is 0.706 enrichment R.

**Q.** How did the binding signal turn out when B21 was run?
**A.** Its binding signal is 1.23 enrichment R.

**Q.** With B22 as the binder, how does the binding signal read?
**A.** The binding signal was 2.22 enrichment R.
